Results: PubChem BioAssay AID651820 (National Center for Advancing Translational Sciences (NCATS), 2012)
In all, about 340,000 compounds went through this assay and about 12,000 (3.5%) were called active. This list was built around the results that the source calls inconclusive (neither active nor inactive); the mix of calls is not that of the screen. The call rests on the fitted dose curve; in most records, active means well fitted inhibition curve with a large enough effect; inconclusive means small, poorly fitted or top-dose-only effect, or another doubt; inactive means no such curve, though single readings can be large or run the other way. Potencies of inconclusive entries are left out as doubtful fits.

Experiment: qHTS Assay for Inhibitors of Hepatitis C Virus (HCV)
Settings: Huh7.5.1 HCVcc-Cre (HCVcc is cell-culture hepatitis C virus) infection, luciferase reporter, 44 h; series mostly up to 41.8 µM
How it was run: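 Reporter virus HCVcc-Cre (~0.5 moi) infects cells exposed to compound; seeding density 1,000 cells/well with 4 h settling beforehand. Luminescence, 15 sec read, taken 44 h post-infection following a 15 min RT substrate incubation.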
Potency means the concentration at half of the fitted maximal effect; tags describe the fitted curve by direction and shape.

Q: Which Potency does the source give for `CC1=C(C(=O)OC2CCCCC2)C(c2cccc([N+](=O)[O-])c2)NC(=O)N1` (stereo not given) here?
A: The Potency was active: 11.2 µM.

Q: Which Potency does the source give for `CCc1ccc(CN2CCN(Cc3ccc(SC)cc3)CC2)cc1` here?
A: Its Potency is active: 10 µM.

Q: Which Potency does the source give for `COc1ccc(/C=C/C(=O)NCCCc2ccccc2)cc1OC` here?
A: The Potency was “inactive”.

Q: With `Cc1ccc(C(=O)C2=C(O)C(=O)N(Cc3ccco3)C2c2cccc(Br)c2)o1` (stereo not given) as the molecule, how does the Potency read?
A: The Potency was “inactive”.

Q: For `COc1ccc(CCNC(=O)c2ccc(CNS(=O)(=O)c3cccc(Cl)c3)cc2)cc1OC`, which Potency is on record?
A: Its Potency is active: 7.94 µM.

Q: For `O=C(O)c1ccccc1C(=O)NCC(O)COc1ccc(Cl)cc1` (stereo not given), which Potency is on record?
A: The Potency was inconclusive [inhibitor, single point].

Q: For `C/C(CC(=O)Nc1ccc(N(C)C)cc1)=N\NC(=O)c1ccncc1`, which Potency is on record?
A: Its Potency is “inactive”.

Q: Which Potency does the source give for `Cc1ccc(C)c(OCCC(=O)Nc2ccc(S(=O)(=O)N3CCCC3)cc2)c1` here?
A: The Potency was active: 8.91 µM.

Q: Which Potency does the source give for `Nc1c(C(=O)OCC2CCCO2)c2nc3ccccc3nc2n1C1CCCC1` (stereo not given) here?
A: Its Potency is inconclusive [inhibitor, full curve].

Q: With `CC(C)[C@H](NC(=O)[C@@H]1Cc2ccccc2CN1C(=O)OC(C)(C)C)C(=O)NC1CCCC1` as the molecule, how does the Potency read?
A: Its Potency is inconclusive [inhibitor, single point].

Q: Which Potency does the source give for `COCCN1C(=O)N[C@@H](c2ccccc2)C(C(=O)OC)=C1C` here?
A: Its Potency is inconclusive [inhibitor, single point].

Q: Which Potency does the source give for `O=C(Nc1ccc2snnc2c1)Nc1cccc2ccccc12` here?
A: Its Potency is active: 10 µM.

Q: Which Potency does the source give for `O=[N+]([O-])c1ccc(-c2cnc(SCc3ccccc3Cl)[nH]2)cc1` here?
A: Its Potency is inconclusive [inhibitor, single point].

Q: With `COc1ccc(CC(=O)OC(C)C(=O)Nc2c(C)n(C)n(-c3ccccc3)c2=O)cc1OC` (stereo not given) as the molecule, how does the Potency read?
A: The Potency was inconclusive [inhibitor, partial curve, poor fit].

Q: With `COc1ccccc1C(=O)NNC(=O)c1ccc(NS(=O)(=O)c2cccs2)cc1` as the molecule, how does the Potency read?
A: Its Potency is “inactive”.

Q: Which Potency does the source give for `O=C(Cn1nnc(-c2ccccc2F)n1)OCC(=O)c1ccccc1` here?
A: Its Potency is “inactive”.

Q: With `CC(C)(C)c1cc[n+](C2=C([O-])c3ccccc3C(=O)/C2=N\S(=O)(=O)c2cccs2)cc1` as the molecule, how does the Potency read?
A: Its Potency is active: 2.82 µM.

Q: Which Potency does the source give for `Cn1nc(C(C)(C)C)c([N+](=O)[O-])c1C(=O)N1CCOCC1` here?
A: The Potency was inconclusive [inhibitor, single point].

Q: For `O=C(Cc1cccc(NC(=O)C2CCCN(C(=O)CCc3ccccc3)C2)c1)Nc1cccc(C(=O)N2CCCC2)c1` (stereo not given), which Potency is on record?
A: The Potency was inconclusive [inhibitor, partial curve].

Q: With `Cc1c(N=Nc2c(O)[nH]c(=O)[nH]c2=O)c(=O)n(-c2ccccc2)n1C` as the molecule, how does the Potency read?
A: Its Potency is “inactive”.
